Data: ChEMBL document CHEMBL1201862, “PubChem BioAssay data set” (2004)

System: NCI-H322M
Assay: NCI-60 cell line screen, 48 h

| SMILES | GI50 |
| --- | --- |
| Cc1ccsc1C(=S)Nc1ccc(Cl)c(C(=O)OC(C(C)C)C(C)C)c1 | inactive: 35.6 µM |
| Fc1c(F)c(F)c(CSc2nc3ccccc3[nH]2)c(F)c1F | inactive: > 100 µM |
| Oc1c(Cl)cc(CN(Cc2cc(Cl)c(O)c(Cl)c2)C2CCCCC2)cc1Cl | inactive: > 100 µM |
| CN(C)CCNc1ccc2ncn3c4ccccc4c(=O)c1c23 | inactive: 1.98 µM |
| COC1OC(COC(C)=O)C(OC(C)=O)C(OC(C)=O)C1NC(=O)N(CCCl)N=O (stereo unspecified) | inactive: > 100 µM |
| COc1cc2c[n+](C)c3c4cc(OC)c(OC)cc4c(OC)cc3c2cc1OC | inactive: 11.1 µM |
| Nc1ccc(Oc2ccc(C3(c4ccc(Oc5ccc(N)c(O)c5)cc4)C4CC5C6CC7CC5C3C(C7)C6C4)cc2)cc1O | inactive: 1.34 µM |
| N=c1c2c(-c3ccccc3)c[nH]c2ncn1N | inactive: > 100 µM |
| CCOC(=O)c1[nH]c(COC(C)=O)c(CCCOC(C)=O)c1CCCOC(C)=O | inactive: > 100 µM |
| COc1ccc2c3c1O[C@H]1C(OC)C=CC4C(C2)N(Cc2cccs2)CCC341 (stereo partly specified) | inactive: > 100 µM |
| COC(=O)[C@@]12CC(C(C)C)[C@H]3CC(C(=O)C=C1OC)[C@H]32 (stereo partly specified) | inactive: > 100 µM |
| CN(/N=C/C=N/N(C)C1=NCCN1)C1=NCCN1 | inactive: > 100 µM |
| CN(CCCNC(=O)c1cc(-c2ccccc2)nc2ccccc12)CCCNC(=O)c1cc(-c2ccccc2)nc2ccccc12 | inactive: 6.85 µM |
| CCOC(=O)Cn1nnc2ccc(Nc3nc4ccccc4nc3-c3ccccc3)cc21 | inactive: 31 µM |
| Nc1nc(S)nc(C(=O)Nc2ccc(Cl)c(Cl)c2)c1-c1ccc(Cl)cc1 | inactive: > 100 µM |
| O=C(O)CN1CCNCCN(CC(=O)O)CC1 | inactive: > 68.5 µM |
| Cc1ccc(S(=O)(=O)N2CCNCCN(S(=O)(=O)c3ccc(C)cc3)CCN(S(=O)(=O)c3ccc(C)cc3)CC2)cc1 | inactive: > 100 µM |
| NC(=O)c1ccccc1NC(=O)C(=O)Cc1nc2ccccc2nc1O | inactive: 86.5 µM |
| O=C(Nc1ccccc1F)c1cc2ccc(O)cc2o/c1=N\c1cccc(F)c1 | inactive: 3.92 µM |
| CCOC(=O)CCc1c(C)nc2c(C)c3c([nH]c4ccc(Cl)cc43)c(C)c2c1O | inactive: 37.3 µM |
| CN(C)CCNC(=O)c1cccc2c1nc(-c1ccncc1)c1ccccc12 | inactive: 3.74 µM |
| O=C(CC(=O)n1nc(-c2ccccc2)c(/N=N/c2ccc([N+](=O)[O-])cc2)c1-c1ccccc1)Nc1ccc(Cl)cc1 | inactive: 29.7 µM |
| CCOC(=O)C(OCC1CC=CCC1)Sc1ccccc1 (stereo unspecified) | inactive: > 100 µM |

| SMILES | GI50 |
| --- | --- |
| CCn1cnnc1-c1nsc2ccccc12 | inactive: > 100 µM |
| O=C(NCCCCCCCCNC(=O)Nc1cccc2ccccc12)Nc1cccc2ccccc12 | inactive: > 100 µM |
| O=C(N/N=C(COc1ccc([N+](=O)[O-])cc1)\N=C\c1ccncc1)c1ccncc1 | inactive: > 100 µM |
| CC(C)=CC[C@]12CCN(C)[C@H]1N(S(=O)(=O)c1ccccc1)c1ccccc12 | inactive: > 27.2 µM |
| O=C(CC1=Nc2nnc(CCCCCCCc3nnc4n3C(=O)C(CC(=O)c3ccc5ccccc5c3)=N4)n2C1=O)c1ccc2ccccc2c1 | inactive: > 100 µM |
| COc1ccc(C2OC(N)=C(C#N)C3=C2CCCC3C)cc1OC (stereo unspecified) | inactive: > 100 µM |
| O=C(O)CCC1(CCC(=O)O)CCCCCCCCC(CCC(=O)O)(CCC(=O)O)C(=O)C1=O | inactive: > 100 µM |
| CC1=C(C#N)C2C(=C(C)N1)C(N)=Nc1ccccc12 (stereo unspecified) | inactive: 88.5 µM |
| Cc1ccc(/N=N/N(C)C(=O)C(C)N)cc1 (stereo unspecified) | inactive: > 100 µM |
| COC(=O)c1cc(NC(=O)c2cc(NC(=O)c3cc([N+](=O)[O-])cn3C)cn2C)cn1C | inactive: 54.7 µM |
| Cc1ccccc1NC(=O)O/N=C(\Cl)C(C)C | inactive: 17.9 µM |
| NC(=O)NNC(=O)CCn1[nH]c(=O)c(Cl)c(Cl)c1=O | inactive: > 100 µM |
| CCCCCCCCCCNC(=S)OCCCC | inactive: 34.1 µM |
| BrCC(Br)(c1ccccc1)c1ccccc1-c1cc(-c2ccccc2)cc(-c2ccccc2)n1 (stereo unspecified) | inactive: 6.79 µM |
| CCCCOc1ccc2c(c1)CC[C@@H]1[C@@H]2CC[C@]2(C)C(=O)N(CCCC)C(=O)C[C@@H]12 | inactive: > 100 µM |
| O=C1CSC(c2ccc([N+](=O)[O-])cc2)N1c1nc(-c2ccc3c(c2)CCCC3)cs1 (stereo unspecified) | inactive: > 100 µM |
| COC(=O)c1ccccc1C1CN=NC12Cc1ccc(C)cc1C2=O (stereo unspecified) | inactive: > 100 µM |
| CCCN(CCC)C(=O)c1nc(N)nc(-c2ccc(OC)cc2)c1-c1ccc(OC)cc1 | inactive: > 100 µM |
| COc1c(C)c2c(c(C)c1Cl)Oc1c(C=O)c(O)c(Cl)c(C)c1C(=O)O2 | inactive: 33 µM |
| Cc1cc(N(CCC#N)CCC#N)ccc1/C=C1N=C(/C=C/c2ccccc2)N(c2ccc(S(N)(=O)=O)cc2)C\1=O | inactive: > 100 µM |
| CC(C)C(/C=C/c1ccc(Cl)c(Cl)c1)=N\NC(=O)N/N=C(/C=C/c1ccc(Cl)c(Cl)c1)C(C)C | inactive: > 100 µM |
| NNC(=O)C(=O)N/N=C1/CCCC1C(=O)CCC(=O)Nc1ccc(Cl)cc1 (stereo unspecified) | inactive: > 100 µM |
| CC1CSC(=S)N1C(=O)N1C(=S)SCC1C (stereo unspecified) | inactive: 42.4 µM |

| SMILES | GI50 |
| --- | --- |
| N#Cc1[nH]c(=O)n(-c2ccc([N+](=O)[O-])cc2)c1N | inactive: > 10 µM |
| COc1ccc(-c2c(C#N)c(N)n(C3OC(CO)C(O)C(O)C3O)c(=S)c2C#N)cc1 (stereo unspecified) | inactive: > 100 µM |
| CN(C)c1n/c(=N/Cc2ccco2)ss1 | inactive: 47.1 µM |
| CCOC(=O)C12CCC(c3c(C)cccc3C)(O1)C(C(=O)OC)=C2C(=O)OC (stereo unspecified) | inactive: 4.12 µM |
| C=CC1(C)/C(=N\O)C(C)(CC)C(=O)N1O (stereo unspecified) | inactive: > 100 µM |
| CC1(C)OC2CC(=O)OCC23C1CC(=O)C1(C)C3CCC2(C)C(c3ccoc3)OC(=O)C3OC321 (stereo unspecified) | inactive: > 125 µM |
| NC(=O)c1c2c(cc3c(=O)c4ccccc4[nH]c13)CCCC2 | inactive: > 100 µM |
| CCC1(OC(C)=O)C(=O)OCc2c1cc1n(c2=O)Cc2cc3ccccc3nc2-1 (stereo unspecified) | inactive: 5.15 µM |
| COC(=O)C1=C(C)C(=O)C2(CCCCCC2C(=O)OC)C1 (stereo unspecified) | inactive: > 100 µM |
| N#CC1=C(N)OC(c2ccc([N+](=O)[O-])cc2)C1(C#N)C#N (stereo unspecified) | inactive: 20 µM |
| C#CCNC(=O)NC(CCCNC(=O)OCc1ccccc1)C(=O)OCc1ccccc1 (stereo unspecified) | inactive: > 100 µM |
| Nc1nc2sc3ccccc3c(=O)n2n1 | inactive: > 100 µM |
| CS/C=C\C(=O)O[C@H]1C[C@@H]2[C@@H](O)c3occ(C)c3C[C@]2(C)[C@@H](C)C1 | inactive: 40.2 µM |
| COc1ccc(CSCc2cc(OC)c(OC)c(OC)c2)cc1 | inactive: > 100 µM |
| N=C(N)N/N=C/c1c(-c2ccc([N+](=O)[O-])cc2)nc2n1CCS2 | inactive: 13.1 µM |
| CN(C)C(=Nc1nc(N(C)C)s[s+]1)N(C)C | inactive: > 100 µM |
| COc1ccc2c(c1)nc1n2C(c2c(F)cccc2F)SC1 (stereo unspecified) | inactive: > 100 µM |
| O=C(O)CCC(N/N=N/c1ccc(-c2nc3ccccc3[nH]2)cc1)C(=O)O (stereo unspecified) | inactive: > 100 µM |
| CC(CC(=O)N1C2CC3CCC2(CS1(=O)=O)C3(C)C)[Si](C)(C)C (stereo unspecified) | inactive: > 100 µM |
| CCCCCC/C(CC(=O)CCC(=O)NCCc1ccccc1)=N\Nc1ccc([N+](=O)[O-])cc1[N+](=O)[O-] | inactive: > 100 µM |
| COC1=CC2(C=CC1=O)CCNC1=C2C(=O)c2nc[nH]c2C1=O (stereo unspecified) | inactive: > 100 µM |
| N#Cc1c(O)nc2[nH]nc(/N=N\c3c(O)ccc4ccccc34)c2c1-c1ccc(Cl)cc1 | active: 0.321 µM |
| COC(=O)C(CC(C)=O)CS(=O)(=O)CC(=O)C(=O)Nc1cccc([N+](=O)[O-])c1 (stereo unspecified) | inactive: > 100 µM |

| SMILES | GI50 |
| --- | --- |
| CC(=O)Nc1[nH]n(C)c(=O)c1-c1nnc(C)s1 | inactive: > 100 µM |
| O=[N+]([O-])c1c(F)c(F)c2c(c1F)N(CCCCCl)c1ccccc1S2 | inactive: 7.31 µM |
| COc1cc2cc(C(=O)N3CC(COS(C)(=O)=O)c4ccc(NC(=O)OCc5ccccc5)cc43)[nH]c2c(OC)c1OC (stereo unspecified) | inactive: > 100 µM |
| COc1cc(OC)nc(-n2c(N)c(C#N)c3ccc([N+](=O)[O-])cc3c2=O)n1 | inactive: > 100 µM |
| CS(=O)(=O)OCCN(CCOS(C)(=O)=O)c1ccc(/C=N/c2ccc(-c3csc(Cc4ccccc4)n3)cc2)c(Cl)c1 | inactive: 60 µM |
| Cc1nc2ccc(Cl)cc2c(-n2ccnc2)c1CCn1ccnc1 | inactive: 26.2 µM |
| COc1ccc(O)c(/C=N\Nc2ccccc2)c1 | inactive: 37 µM |
| O=C(N/N=C\c1cccc2ccccc12)Nc1cccc2ccccc12 | inactive: 46 µM |
| O=C(/C=C1\C[C@H]2C=Nc3ccccc3C(=O)N2C1)NCCCNC(=O)/C=C1\C[C@H]2C=Nc3ccccc3C(=O)N2C1 | inactive: 16.8 µM |
| Cc1ccc(S(=O)(=O)NC(=O)Nc2cccc(S(N)(=O)=O)c2)cc1 | inactive: > 100 µM |
| O=C(Nc1nc2ccccc2s1)c1cc([N+](=O)[O-])ccc1Cl | inactive: 15.2 µM |
| Cc1cc(=O)oc2cc(SC(=O)N(C)C)ccc12 | inactive: > 100 µM |
| C/C(=C\CSCC(N)C(=O)O)CC/C=C(\C)CNc1ccccc1 (stereo unspecified) | inactive: 56.6 µM |
| CC/C=C1\N=C(c2ccc(Cl)cc2)OC1=O | inactive: > 100 µM |
| O=[As](O)(O)c1ccc(/N=N/c2ccc([As](=O)(O)O)cc2)cc1 | inactive: > 100 µM |
| O=S(=O)(O)c1cc(/N=N/c2c(O)ccc3ccccc23)c2c(S(=O)(=O)O)cccc2c1 | inactive: > 100 µM |
| O=C1/C(=C/c2cccc(Cl)c2)CCCc2ccccc21 | inactive: 17.8 µM |
| CCc1nc(N)nc(N)c1-c1ccc(N2CCOCC2)c(N=[N+]=[N-])c1 | inactive: 94.4 µM |
| COc1ccc2c(c1OC)C(C(Cl)(Cl)Cl)N1CCc3cc4c(cc3C1=C2)OCO4 (stereo unspecified) | inactive: 40.2 µM |
| O=C(Nc1ccc([N+](=O)[O-])cc1Cl)c1cccc([N+](=O)[O-])c1O | inactive: 2.35 µM |
| COc1ccc(/C=C\c2cc(OC)c3c(c2)OCO3)c(O)c1O | inactive: 9.86 µM |
| Cc1c2cc[n+](C)cc2c(C)c2c1[nH]c1ccc(O)c(OCC(F)(F)F)c12 | inactive: 1.99 µM |

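Test compounds were applied to cells in 96-well plates for 48 hours at 5 doses. Abbreviation: GI50, concentration required for 50% inhibition of growth.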 Active and inactive are the calls of the source. No stated cut-off is given here; in the data, active = GI50 up to about 1.1 µM and inactive = higher.
